Laboratory results from PubChem BioAssay AID588855 (National Center for Advancing Translational Sciences (NCATS), 2011).
About 5,000 (1.2%) of roughly 410,000 compounds were called active. This list was built around the results that the source calls inconclusive (neither active nor inactive); the mix of calls is not that of the screen. Calls come from the whole dose curve; as a rule, active = well fitted inhibition curve with a large enough effect; inconclusive = small, poorly fitted or top-dose-only effect; inactive = no such curve, though single readings can be large or run the other way. Potencies beside an inconclusive call are fits to weak or partial responses and may not hold up.

test: qHTS for Inhibitors of TGF-b; details: HepG2 CAGA-GFP TGF-b/SMAD3 reporter, GFP fluorescence, 18 h, TGF-beta stimulated, 500 pg/mL final; series mostly up to 46.1 µM; activity, negative = inhibition: at the top concentration; note: nearly all actives have a fitted effect of over 65% in size
How it was run: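 HEPG2 CAGA-GFP reporter cells (1000/well, DMEM with 1% FBS) received compounds, then recombinant TGF-beta at 500 pg/mL final for 18 hours at 37 degrees C. Per-cell GFP summed per well was normalised to unstimulated and stimulated DMSO controls before curve fitting.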
% is set by controls: 0 for no effect and ±100 for the full control effect; potency is the fitted concentration of half-maximal effect; tags give direction and shape of the fitted curve.

Row | Compound | Potency | activity, negative = inhibition
1 | Cc1nsc2nc3c(F)c(F)c(F)c(F)c3cc12 | inconclusive: 35.5 µM [inhibitor, single point] | 
2 | CCCn1c(SCC(=O)Nc2cc(C)on2)nc2c1c(=O)n(C)c(=O)n2C | inconclusive: 25.1 µM [inhibitor, partial curve, poor fit] | 
3 | O=C(Cn1cc(S(=O)(=O)Cc2cccc(Cl)c2)c2ccccc21)NCc1ccccc1Cl | inconclusive: 2.82 µM [inhibitor, partial curve, poor fit] | 
4 | O=[N+]([O-])CC(c1ccccc1)c1c[nH]c2ccccc12 (stereo not drawn) | inconclusive: 20 µM [inhibitor, single point] | 
5 | Cc1ccc(C)c(NC(=O)CN(C)C(=O)c2ccc3[nH]c4c(c3c2)CC(C)CC4)c1 (stereo not drawn) | inconclusive: 10 µM [inhibitor, partial curve, poor fit] | 
6 | Cc1c(C(=O)OC(C)C(C)C[N+](C)(C)C)oc2ccccc12 (stereo not drawn) | inconclusive: 35.5 µM [inhibitor, single point] | 
7 | CCOC(=O)C(=NC(C)CC)NNc1cccc(C(F)(F)F)c1 (stereo not drawn) | inconclusive: 6.31 µM [inhibitor, full curve, poor fit] | 
8 | COc1cccc(NC(=O)/C(C#N)=C/c2ccc(-c3ccc(C)cc3)o2)c1 | inconclusive: 1.41 µM [inhibitor, partial curve, poor fit] | 
9 | CCc1ccc2ncc(S(=O)(=O)c3ccc(C)c(C)c3)c(N3CCCC3)c2c1 | inconclusive: 35.5 µM [inhibitor, partial curve, poor fit] | 
10 | Cc1ccccc1CN1CCc2c(OCC(=O)N3CCCCC3)cccc2C1=O | inconclusive: 35.5 µM [inhibitor, single point] | 
11 | Cc1nn(-c2ccccc2)c2c1c(C)c(CCC(=O)N1CCOCC1)c(=O)n2C |  | inactive: 9.84%
12 | Cc1cc(C)nc(-n2nc(C)c3c2N(Cc2ccccc2C)C(=O)CC3c2ccc(Cl)cc2)n1 (stereo not drawn) | inconclusive: 3.55 µM [inhibitor, single point] | 
13 | COc1ccc(C/C(N)=N/OC(=O)c2cccc([N+](=O)[O-])c2)cc1 | inconclusive: 35.5 µM [inhibitor, single point] | 
14 | Cc1nc2cc(NCc3nc4ccccc4n3Cc3ccccc3)ccc2n1C | inconclusive: 35.5 µM [inhibitor, single point] | 
15 | O=C(Nc1ccc(Oc2ccccc2)cc1)c1ccc(F)c(S(=O)(=O)N2CCN(c3ccccc3F)CC2)c1 | inconclusive: 0.355 µM [inhibitor, full curve, poor fit] | 
16 | COCCNC(=O)c1ccc(N2CC3CC(C2)c2cccc(=O)n2C3)c(NC(=O)c2ccccc2Cl)c1 (stereo not drawn) |  | inactive: -12.7%
17 | CCOc1ccc(C(=O)NC2C(=O)N3C(C(=O)O)=C(COC(C)=O)CSC23)cc1OCC (stereo not drawn) | inconclusive: 3.55 µM [inhibitor, single point] | 
18 | COc1ccc(NC(=O)CN2C(=O)NC(CC(C)C)C2=O)cc1S(=O)(=O)N1CCOCC1 (stereo not drawn) | inconclusive: 22.4 µM [inhibitor, partial curve, poor fit] | 
19 | Cc1ccccc1Cn1nc(C)c(NC(=O)c2cc3nc(-c4ccco4)cc(C(F)(F)F)n3n2)c1C | inconclusive: 4.47 µM [inhibitor, full curve, poor fit] | 
20 | O=C(C#Cc1ccccc1)Nc1ccccc1F | inconclusive: 15.8 µM [inhibitor, partial curve, poor fit] | 
21 | O=S(=O)(c1ccc2oc3ccccc3c2c1)N1CCOCC1 | inconclusive: 22.4 µM [inhibitor, single point] | 

Row | Compound | Potency | activity, negative = inhibition
22 | CC(C)(C)C1=CC(=Nc2ccccc2N)C=C(C(C)(C)C)C1=O | inconclusive: 17.8 µM [inhibitor, single point] | 
23 | O=C1CSC(=S)N1c1ccc(F)c(Cl)c1 | inconclusive: 25.1 µM [inhibitor, single point] | 
24 | CCN1C(=O)S/C(=C/c2cn(C)c3ccccc23)C1=O |  | inactive: -2.7%
25 | Cc1ccc(O)c(NC(=O)CSc2ccc(Cl)cc2)c1 | inconclusive: 11.2 µM [inhibitor, partial curve, poor fit] | 
26 | Cc1ccc(C)c2c1[nH]c1ccccc12 |  | inactive: 5.06%
27 | O=C(CCCSc1nnc(SCCCC(=O)c2ccc(F)cc2)s1)c1ccc(F)cc1 |  | inactive: -35.7%
28 | O/N=C/c1cn(-c2ccccc2)nc1-c1ccc2c(c1)OCCO2 |  | inactive: 2.46%
29 | Cc1ccccc1OCC(=O)Nc1nnc(SCc2cc(=O)n3cc(Cl)ccc3n2)s1 | inconclusive: 20 µM [inhibitor, single point] | 
30 | CCOc1ccc(OCc2ccc(C(=O)NN)o2)cc1 | inconclusive: 20 µM [inhibitor, single point] | 
31 | O=C(N/N=C/c1ccc([N+](=O)[O-])o1)c1cc2ccccc2o1 | active: 6.31 µM | 
32 | Cc1nc2ccc(NS(=O)(=O)c3ccc(F)cc3F)cc2s1 | inconclusive: 10 µM [inhibitor, partial curve, poor fit] | 
33 | O=C(CCC(=O)N1CCN(Cc2ccc(F)cc2)CC1)Nc1nnc(C(F)(F)F)s1 | inconclusive: 35.5 µM [inhibitor, single point] | 
34 | Cc1ccccc1NCc1ccc(O)c2ncccc12 | active: 10 µM | 
35 | CCOC(=O)C1(CCOc2ccccc2)CCN(Cc2cccc(F)c2)CC1 | inconclusive: 35.5 µM [inhibitor, single point] | 
36 | O=S(=O)(Nc1ccc(Nc2ccccc2)cc1)c1ccc(F)cc1 | inconclusive: 35.5 µM [inhibitor, single point] | 
37 | COc1ccc(C(=O)NCc2nc(-c3cccc(C)c3)no2)cc1OC | inconclusive: 0.501 µM [inhibitor, full curve, poor fit] | 
38 | CCC1(CC)NC(=O)N(CC(=O)OC(C)C(=O)Nc2cc([N+](=O)[O-])ccc2OC)C1=O (stereo not drawn) | inconclusive: 0.0891 µM [inhibitor, full curve, poor fit] | 
39 | Oc1ccc(C[C@@H]2CNCCN2CCc2cc(C(F)(F)F)cc(C(F)(F)F)c2)cc1 | inconclusive: 22.4 µM [inhibitor, single point] | 
40 | COC(=O)C1=C(CCc2ccccc2)NC(=O)NC1c1ccc(Br)cc1 (stereo not drawn) |  | inactive: -22.6%
41 | Cc1c(C(=O)NCc2ccc(Cl)c(Cl)c2)sc(=O)n1Cc1cccc(F)c1 | inconclusive: 14.1 µM [inhibitor, single point] | 
42 | C=C(Cl)COc1ccc2c(CCC)cc(=O)oc2c1 | inconclusive: 35.5 µM [inhibitor, single point] | 

Row | Compound | Potency | activity, negative = inhibition
43 | COC(=O)C1CCN(S(=O)(=O)CCNC(=O)c2ccc(F)cc2)CC1 |  | inactive: -10.9%
44 | O=C(c1ccc(CSc2ccc(Cl)cc2)o1)N1CCOCC1 |  | inactive: -0.268%
45 | COc1ccccc1NC(=S)NC(C)=O |  | inactive: 6.35%
46 | CC(C)[C@H]1COCCS(=O)(=O)N1Cc1ccccc1-c1cccc2c1oc1ccccc12 | inconclusive: 11.2 µM [inhibitor, partial curve] | 
47 | CCC(=O)N1CCN(c2ccc(NC(=O)c3ccc([N+](=O)[O-])o3)cc2)CC1 | inconclusive: 7.94 µM [inhibitor, partial curve] | 
48 | C[C@]12c3[nH]c4ccc(Cl)cc4c3CCN1C(=O)[C@@H](CC(=O)NCCc1ccccn1)C[C@@H]2C(=O)N1CCCCC1 | inconclusive: 31.6 µM [inhibitor, single point] | 
49 | COc1ccccc1-c1c(C(F)(F)F)oc2cc(OC(=O)c3ccc([N+](=O)[O-])cc3)ccc2c1=O | inconclusive: 35.5 µM [inhibitor, single point] | 
50 | O=C(NC(Cc1ccccc1)C(=O)NCCc1ccccn1)c1ccccc1 (stereo not drawn) | inconclusive: 35.5 µM [inhibitor, single point] | 
51 | COc1cc2c(C#CCCO)c(-c3ccc(C#N)cc3)oc(=O)c2cc1OC | inconclusive: 35.5 µM [inhibitor, partial curve, poor fit] | 
52 | Cc1onc(-c2ccccc2Cl)c1C(=O)NCc1nnnn1-c1ccc(F)c(F)c1 |  | inactive: 0.629%
53 | NC(=O)C1(N2CCCCC2)CCN(CC(=O)Nc2ccccc2Sc2ccccc2)CC1 | inconclusive: 15.8 µM [inhibitor, single point] | 
54 | COc1ccc(C2=C(C=C(C#N)C#N)C(c3ccccc3C)c3ccccc3O2)cc1OC (stereo not drawn) | inconclusive: 35.5 µM [inhibitor, single point] | 
55 | O=C(c1cc(Cl)nc2ccccc12)N(Cc1nnc(-c2ccc(Cl)cc2)o1)C1CC1 | inconclusive: 3.98 µM [inhibitor, partial curve, poor fit] | 
56 | CCOc1ccccc1CNC(=O)c1cc2occc2n1C |  | inactive: -1.97%
57 | CCOc1ccc(CNC(=O)c2ccc(NC(=O)N3CCSc4ncccc43)cc2)cc1 | inconclusive: 0.708 µM [inhibitor, partial curve, poor fit] | 
58 | OC(c1ccc(F)c(F)c1)c1ncc(-c2ccc(F)cc2)[nH]1 (stereo not drawn) |  | inactive: 11.2%
59 | Cc1cc(NC(=O)c2c(F)cccc2F)n(-c2nc3ccccc3[nH]2)n1 | inconclusive: 22.4 µM [inhibitor, single point] | 
60 | CCOC(=O)C(C)n1nc(/C=C/c2ccc(OC)cc2)ccc1=O (stereo not drawn) | inconclusive: 0.794 µM [inhibitor, full curve, poor fit] | 
61 | O=C(Cc1coc(-c2ccc(F)cc2)n1)NC1CCCCC1 | inconclusive: 0.447 µM [inhibitor, partial curve, poor fit] | 
62 | O=C(NC1CCCC1)C(c1ccncc1)N(C(=O)c1csnn1)c1cccc(F)c1 (stereo not drawn) | inconclusive: 0.562 µM [inhibitor, full curve, poor fit] | 
63 | C/C(CC(=O)Nc1ccc(Br)cc1)=N\NC(=O)c1cccc(O)c1 | inconclusive: 17.8 µM [inhibitor, single point] | 
